The other results are listed elsewhere or left out.
test system: S. aureus RN4220; test: growth inhibition call (relative growth <= 0.2); details: 50 µM

| SMILES | growth inhibition call |
| --- | --- |
| C[C@@H]1CN([C@H](C)CO)C(=O)c2cc(NC(=O)Nc3cccc4ccccc34)ccc2O[C@H]1CN(C)C(=O)Nc1ccc(C(F)(F)F)cc1 | inactive |
| C[C@H]1CN([C@@H](C)CO)C(=O)c2cc(NC(=O)Cn3cnnn3)ccc2O[C@@H]1CN(C)Cc1ccc(C(=O)O)cc1 | inactive |
| COc1ccc(C(C)(C)N)cc1OC | inactive |
| C[C@@H]1CN([C@H](C)CO)S(=O)(=O)c2ccc(Br)cc2O[C@H]1CN(C)C(=O)Cc1ccccn1 | inactive |
| COc1ccc(NC(=O)N(C)C[C@H]2Oc3ccc(NS(=O)(=O)c4cn(C)cn4)cc3CC(=O)N([C@@H](C)CO)C[C@@H]2C)cc1 | inactive |
| C[C@@H]1CN([C@H](C)CO)C(=O)c2cc(NC(=O)Cc3ccccc3)ccc2O[C@@H]1CN(C)Cc1ccc(Cl)c(Cl)c1 | inactive |
| C[C@H](CO)N1C[C@H](C)[C@H](CN(C)S(=O)(=O)c2cccs2)Oc2c(NS(=O)(=O)c3ccccc3)cccc2C1=O | inactive |
| COc1cc(N2CCC(N)CC2)ccc1Nc1ncc(Cl)c(-c2c[nH]c3ccccc23)n1 | active |
| CC1(C)OC(=O)NC1=O | inactive |
| C[C@@H]1CN([C@H](C)CO)C(=O)c2cccc(NC(=O)NC3CCCCC3)c2O[C@@H]1CN(C)S(C)(=O)=O | inactive |
| COCC#Cc1cnc2c(c1)C(=O)N([C@H](C)CO)C[C@H](C)[C@H](CN(C)C(=O)c1cnccn1)O2 | inactive |
| Cc1ccc(S(=O)(=O)N(C)C[C@H]2OCCCC[C@H](C)Oc3ccc(NC(=O)CCC(F)(F)F)cc3C(=O)N([C@H](C)CO)C[C@H]2C)cc1 | inactive |
